# Publication PMC9911399, “Two distinct binding modes provide the RNA-binding protein RbFox with extraordinary sequence specificity”
# Changes are numbered by the printed parent chain; changes in the protein carry UniProt numbers. Some of the results follow.
# T1: RBFOX1 RRM (Homo sapiens, UniProt Q9NWB1 109-208)
# T1 sequence: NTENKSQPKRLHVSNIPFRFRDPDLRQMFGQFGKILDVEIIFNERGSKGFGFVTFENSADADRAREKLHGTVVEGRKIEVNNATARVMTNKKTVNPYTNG
# B1: UUAGAAA (DNA:RNA)
# RNA: GGGAGACCGGAAUUCAGAUUGUCCUUAGAAAUUAAAUCCCGUCGUAGCCACCA
# DNA 1: CAATCTGAATTCCGGTCTCCC
# DNA 2: TGGTGGCTACGACGGGATT
# B2: CUAAAUC (DNA:RNA)
# RNA: B1 RNA with U25C, G28A, A30U, A31C
# DNA 1: CAATCTGAATTCCGGTCTCCC
# DNA 2: TGGTGGCTACGACGGGATT
# B3: CGUAGAG (DNA:RNA)
# RNA: B1 RNA with U25C, U26G, A27U, G28A, A29G, A31G
# DNA 1: CAATCTGAATTCCGGTCTCCC
# DNA 2: TGGTGGCTACGACGGGATT
# B4: GGUGAGG (DNA:RNA)
# RNA: B1 RNA with U25G, U26G, A27U, A30G, A31G
# DNA 1: CAATCTGAATTCCGGTCTCCC
# DNA 2: TGGTGGCTACGACGGGATT
# B5: CCACUCU (DNA:RNA)
# RNA: B1 RNA with U25C, U26C, G28C, A29U, A30C, A31U
# DNA 1: CAATCTGAATTCCGGTCTCCC
# DNA 2: TGGTGGCTACGACGGGATT
# B6: GGGUCGA (DNA:RNA)
# RNA: B1 RNA with U25G, U26G, A27G, G28U, A29C, A30G
# DNA 1: CAATCTGAATTCCGGTCTCCC
# DNA 2: TGGTGGCTACGACGGGATT
# B7: CCGUGGG (DNA:RNA)
# RNA: GGGAGACCGGAAUUCAGAUUGUCCCCGUGGGUUAAAUCCCGUCGUAGCCACCA
# DNA 1: CAATCTGAATTCCGGTCTCCC
# DNA 2: TGGTGGCTACGACGGGATT
# B8: UCUUCCU (DNA:RNA)
# RNA: B7 RNA with C25U, G27U, G29C, G30C, G31U
# DNA 1: CAATCTGAATTCCGGTCTCCC
# DNA 2: TGGTGGCTACGACGGGATT
# B9: GUGACCA (DNA:RNA)
# RNA: B1 RNA with U25G, A27G, G28A, A29C, A30C
# DNA 1: CAATCTGAATTCCGGTCTCCC
# DNA 2: TGGTGGCTACGACGGGATT
# B10: ACGAGUC (DNA:RNA)
# RNA: B7 RNA with C25A, U28A, G30U, G31C
# DNA 1: CAATCTGAATTCCGGTCTCCC
# DNA 2: TGGTGGCTACGACGGGATT
# B11: GGUGAUU (DNA:RNA)
# RNA: B1 RNA with U25G, U26G, A27U, A30U, A31U
# DNA 1: CAATCTGAATTCCGGTCTCCC
# DNA 2: TGGTGGCTACGACGGGATT
# B12: GGGGCGU (DNA:RNA)
# RNA: B7 RNA with C25G, C26G, U28G, G29C, G31U
# DNA 1: CAATCTGAATTCCGGTCTCCC
# DNA 2: TGGTGGCTACGACGGGATT
# B13: CCCAUGC (DNA:RNA)
# RNA: B7 RNA with G27C, U28A, G29U, G31C
# DNA 1: CAATCTGAATTCCGGTCTCCC
# DNA 2: TGGTGGCTACGACGGGATT
# B14: GAUUAUA (DNA:RNA)
# RNA: B1 RNA with U25G, U26A, A27U, G28U, A30U
# DNA 1: CAATCTGAATTCCGGTCTCCC
# DNA 2: TGGTGGCTACGACGGGATT
# B15: AGUGUUG (DNA:RNA)
# RNA: B7 RNA with C25A, C26G, G27U, U28G, G29U, G30U
# DNA 1: CAATCTGAATTCCGGTCTCCC
# DNA 2: TGGTGGCTACGACGGGATT
# B16: AUAGGAA (DNA:RNA)
# RNA: B1 RNA with U25A, A29G
# DNA 1: CAATCTGAATTCCGGTCTCCC
# DNA 2: TGGTGGCTACGACGGGATT
# B17: AACCAGA (DNA:RNA)
# RNA: B1 RNA with U25A, U26A, A27C, G28C, A30G
# DNA 1: CAATCTGAATTCCGGTCTCCC
# DNA 2: TGGTGGCTACGACGGGATT
# B18: UGACUUA (DNA:RNA)
# RNA: B1 RNA with U26G, G28C, A29U, A30U
# DNA 1: CAATCTGAATTCCGGTCTCCC
# DNA 2: TGGTGGCTACGACGGGATT
# B19: AUAUCCA (DNA:RNA)
# RNA: B1 RNA with U25A, G28U, A29C, A30C
# DNA 1: CAATCTGAATTCCGGTCTCCC
# DNA 2: TGGTGGCTACGACGGGATT
# B20: ACCAAGU (DNA:RNA)
# RNA: B7 RNA with C25A, G27C, U28A, G29A, G31U
# DNA 1: CAATCTGAATTCCGGTCTCCC
# DNA 2: TGGTGGCTACGACGGGATT
# B21: UGGGAAU (DNA:RNA)
# RNA: B1 RNA with U26G, A27G, A31U
# DNA 1: CAATCTGAATTCCGGTCTCCC
# DNA 2: TGGTGGCTACGACGGGATT
# B22: AGCCCAG (DNA:RNA)
# RNA: B7 RNA with C25A, C26G, G27C, U28C, G29C, G30A
# DNA 1: CAATCTGAATTCCGGTCTCCC
# DNA 2: TGGTGGCTACGACGGGATT
# B23: CCUUUUA (DNA:RNA)
# RNA: B7 RNA with G27U, G29U, G30U, G31A
# DNA 1: CAATCTGAATTCCGGTCTCCC
# DNA 2: TGGTGGCTACGACGGGATT
# B24: UCAGUUG (DNA:RNA)
# RNA: B1 RNA with U26C, A29U, A30U, A31G
# DNA 1: CAATCTGAATTCCGGTCTCCC
# DNA 2: TGGTGGCTACGACGGGATT
# B25: GAUGUCG (DNA:RNA)
# RNA: B7 RNA with C25G, C26A, G27U, U28G, G29U, G30C
# DNA 1: CAATCTGAATTCCGGTCTCCC
# DNA 2: TGGTGGCTACGACGGGATT
# B26: UCAACCA (DNA:RNA)
# RNA: B1 RNA with U26C, G28A, A29C, A30C
# DNA 1: CAATCTGAATTCCGGTCTCCC
# DNA 2: TGGTGGCTACGACGGGATT
# B27: GGUUUAA (DNA:RNA)
# RNA: B1 RNA with U25G, U26G, A27U, G28U, A29U
# DNA 1: CAATCTGAATTCCGGTCTCCC
# DNA 2: TGGTGGCTACGACGGGATT
# B28: ACACACA (DNA:RNA)
# RNA: B1 RNA with U25A, U26C, G28C, A30C
# DNA 1: CAATCTGAATTCCGGTCTCCC
# DNA 2: TGGTGGCTACGACGGGATT
# B29: AUUUUUC (DNA:RNA)
# RNA: B7 RNA with C25A, C26U, G27U, G29U, G30U, G31C
# DNA 1: CAATCTGAATTCCGGTCTCCC
# DNA 2: TGGTGGCTACGACGGGATT
# B30: AGAUCAC (DNA:RNA)
# RNA: B1 RNA with U25A, U26G, G28U, A29C, A31C
# DNA 1: CAATCTGAATTCCGGTCTCCC
# DNA 2: TGGTGGCTACGACGGGATT
# B31: AACUACG (DNA:RNA)
# RNA: B7 RNA with C25A, C26A, G27C, G29A, G30C
# DNA 1: CAATCTGAATTCCGGTCTCCC
# DNA 2: TGGTGGCTACGACGGGATT
# Target: T1, RBFOX1 RRM
# Assay: EMSA; HiTS-Eq, 1 nM pool, 10 min; buffer printed only for the single-RNA assays: 10 mM Tris pH 7.5, 150 mM NaCl, 3.4 mM EDTA, 0.001% NP-40, 30 C
# Conditions: tags: His6 N-terminal (pET28a); label: 5' 32P
# Method in brief: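 A pool of RNA with 7 randomized nucleotides, 5′-radiolabelled and with DNA-annealed flanks, was equilibrated at 1 nM for 10 min in 50 µL with purified RbFox RRM, wild type or mutant, across increasing protein concentrations. Free RNA was separated by 8% native PAGE, excised, reverse-transcribed, barcoded by PCR and sequenced. Relative association constants were obtained from read-count changes of each RNA species versus the control reaction and normalised to the cognate motif.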
row,Binder,binding signal
1,B1,0.0116 KA relative to UGCAUGU
2,B2,0.00515 KA relative to UGCAUGU
3,B3,0.01 KA relative to UGCAUGU
4,B4,0.0135 KA relative to UGCAUGU
5,B5,0.000345 KA relative to UGCAUGU
6,B6,0.0159 KA relative to UGCAUGU
7,B7,0.00973 KA relative to UGCAUGU
8,B8,0.00401 KA relative to UGCAUGU
9,B9,0.00446 KA relative to UGCAUGU
10,B10,0.00879 KA relative to UGCAUGU
11,B11,0.0123 KA relative to UGCAUGU
12,B12,0.0374 KA relative to UGCAUGU
13,B13,0.00628 KA relative to UGCAUGU
14,B14,0.00631 KA relative to UGCAUGU
15,B15,0.0143 KA relative to UGCAUGU
16,B16,0.00527 KA relative to UGCAUGU

row,Binder,binding signal
1,B17,0.00285 KA relative to UGCAUGU
2,B18,0.012 KA relative to UGCAUGU
3,B19,0.000171 KA relative to UGCAUGU
4,B20,0.000503 KA relative to UGCAUGU
5,B21,0.0297 KA relative to UGCAUGU
6,B22,0.00689 KA relative to UGCAUGU
7,B23,0.00227 KA relative to UGCAUGU
8,B24,0.0143 KA relative to UGCAUGU
9,B25,0.0228 KA relative to UGCAUGU
10,B26,0.000331 KA relative to UGCAUGU
11,B27,0.00479 KA relative to UGCAUGU
12,B28,0.00153 KA relative to UGCAUGU
13,B29,0.00711 KA relative to UGCAUGU
14,B30,0.00415 KA relative to UGCAUGU
15,B31,0.00391 KA relative to UGCAUGU
